Measured values as given in PubChem BioAssay AID1814 (Broad Institute, 2009).
Hit rate of the full screen: of about 300,000 compounds, about 22,000 (7.3%) were called active. The shares of active, inactive and inconclusive entries below differ from those in the screen. Rule as the data show it: active = activity score below about -60%; inconclusive = mostly about -28% to -61%; inactive = positive scores.

Assay: Activators via SNCA 5'UTR binding, MLPCN (AID 1814)
Conditions: alpha-synuclein 5'UTR reporter, activators screen; active compounds read low; tested at 7.5 µM

| Compound | activity score |
| --- | --- |
| Cc1ccc(C(=O)Nc2cccc(C(F)(F)F)c2)cc1NC(=O)c1ccno1 | inactive: 94.9% |
| COC(=O)c1ccc(Nc2ncnc3sccc23)cc1 | active: -125% |
| COc1cc(CO)ccc1OCc1ccc(Cl)nc1 | active: -102% |
| C/C(=N\N=c1/scc(C)n1Cc1ccco1)c1cccc([N+](=O)[O-])c1 | inconclusive: -55.7% |
| O=C(/C=C/c1cccnc1)c1ccc(O)cc1 | inconclusive: -61.1% |
| Cc1cc(C)cc(NS(=O)(=O)c2ccc(NC(=S)Nc3ccccc3)cc2)c1 | inconclusive: -40.1% |
| O=C(NC1CCCCC1)N1CCc2ccccc2C1 | active: -85.3% |
| O=C(NCCc1ccccc1)c1ccc(Cl)c([N+](=O)[O-])c1 | active: -98.9% |
| O=C(CCc1ccccc1)Nc1ccccc1 | active: -80.3% |
| O=C(Nc1ccc2[nH]c3c(c2c1)CCCC3)c1ccco1 | inconclusive: -54.6% |
| CCOC(=O)c1[nH]c2ccccc2c1NC(C)=O | inconclusive: -38.1% |
| Cc1cc(C)n(-c2nnc3c4ccccc4n(C)c3n2)n1 | active: -68.9% |
| O=[N+]([O-])c1cccc2nc(-c3ccccc3)c(-c3ccccc3)nc12 | inconclusive: -37.3% |
| Cc1cccc(N2CCN(C(=O)Cc3ccccc3[N+](=O)[O-])CC2)c1C | inconclusive: -50% |
| Cc1cc(C)c2nc3sc(C(=O)N4CCOCC4)c(N)c3cc2c1 | inactive: 87.8% |
| O=C(NN=C1CCCCCCCCCCC1)c1ccccc1F | inconclusive: -58.6% |
| O=C(Cc1ccc(Cl)cc1)Nc1ccc(SC(F)F)cc1 | inconclusive: -57.6% |
| COc1ccc(Nc2nc(-c3ccc(OC)cc3)cs2)cc1 | active: -106% |
| O=C(CCC(=O)Nc1ccccc1Cl)N/N=C1\CCCc2ccccc21 | inconclusive: -43.4% |
| C/C(CCc1ccccc1)=N\NC(=O)c1ccccc1 | inconclusive: -60.6% |

| Compound | activity score |
| --- | --- |
| COc1cc(C(=O)N/N=C/c2sccc2C)cc(OC)c1OC | inactive: 114% |
| O=C(NN1C(=O)c2ccccc2NC1c1ccco1)c1ccccc1 (stereo not given) | inconclusive: -59.4% |
| CCOc1cc(/C=C2\CN(C)C/C(=C\c3ccc(O)c(OCC)c3)C2=O)ccc1O | inactive: 96.5% |
| Cc1ccc(S(=O)(=O)/N=C(/NC(=S)Nc2cccc(C)c2)c2ccccc2)cc1 | inconclusive: -60.1% |
| CC1CCCCN1Cc1c(O)ccc2c(=O)c(-c3ccc(Cl)cc3)coc12 (stereo not given) | active: -68.3% |
| O=c1[nH]c(/C(Cl)=C/c2cccc(C(F)(F)F)c2)nc2cc(Cl)ccc12 | inconclusive: -54.3% |
| COc1ccc(Nc2cc(C(=O)NCCCN3CCOCC3)c3ccccc3n2)cc1OC | inconclusive: -49.3% |
| Nc1ncc(-c2ccccc2)n1CC1CCCO1 (stereo not given) | inconclusive: -59.9% |
| Cc1cc(/C=C2\SC(=S)N(Cc3ccco3)C2=O)c(C)n1-c1ccccc1 | active: -74% |
| COc1ccc(C)cc1Nc1c2c(nc3ccccc13)CCC2 | inactive: 68.3% |
| Cc1ccc(C(=O)NCCSc2snnc2C)cc1 | inconclusive: -57.7% |
| CSc1ccccc1NC(=O)Nc1cccc(Cl)c1 | inconclusive: -56.7% |
| CN(C)c1ccc(NC(=S)c2ccc3ccccc3n2)cc1 | inconclusive: -58.1% |
| Cc1ccc2cc(CN(CC3CCCO3)C(=S)Nc3ccccc3)c(=O)[nH]c2c1C (stereo not given) | inactive: 72.3% |
| CCCCOCCCNc1ncnc2c1[nH]c1ccccc12 | inconclusive: -53% |
| O=c1c(Cl)c(Cl)cnn1Cc1nnc(-c2ccccc2Br)o1 | active: -66.1% |
| CCCCCOc1ccc(NC(=O)C(=O)NCCCn2ccnc2)cc1 | inactive: 62.6% |
| O=C(NC(Nc1nc2ccc([N+](=O)[O-])cc2s1)(C(F)(F)F)C(F)(F)F)c1cccnc1 | inactive: 59.7% |
| Cc1cc(C)n(-c2nnc(NC(C)(C)C)nn2)n1 | inconclusive: -33.4% |
| COc1ccc(C(=O)Nc2ccc(NC(=O)c3cccs3)cn2)cc1 | inconclusive: -56.4% |

| Compound | activity score |
| --- | --- |
| Cc1cccc(-n2ncc3c(N4CCOCC4)ncnc32)c1 | inactive: 77.3% |
| O=C(NCCCn1ccnc1)c1csc2ccccc12 | inconclusive: -37.6% |
| CCN=C1S/C(=C\c2ccc(O)c(OCC)c2)C(=O)N1CC | inactive: 68.2% |
| Cc1ccc(N(Cc2ccccc2)C(=O)c2ccc(F)cc2)cc1 | inconclusive: -48.5% |
| CCCn1nnc(NC(=O)c2ccc([N+](=O)[O-])cc2Cl)n1 | inconclusive: -35.1% |
| CCCCN(C)CC(O)Cn1cc(/C=C/C(=O)c2cccs2)c2ccccc21 (stereo not given) | inconclusive: -58.9% |
| Nc1ccc(C(=O)OCC(=O)Nc2ccc([N+](=O)[O-])cc2C(F)(F)F)cc1 | inconclusive: -42.5% |
| O=C(Nc1ccncc1)Nc1ccc(Cl)cc1 | inconclusive: -50.9% |
| CC(C)(C)c1ccc(-c2noc(CCC(=O)NCC3CCCO3)n2)cc1 (stereo not given) | inactive: 104% |
| COC(=O)c1ccc(NC(=S)Nc2ccccn2)cc1 | active: -171% |
| COc1ccc(-c2nc3c(-c4ccccc4)cnn3cc2C)cc1F | inconclusive: -54.7% |
| COc1ccc(-c2noc(CSc3nnc(CCc4ccccc4)n3-c3ccccc3)n2)cc1OC | inactive: 51.7% |
| CCOC(=O)c1sc2nc3n(c(=O)c2c1C)CCC(C)CC3 (stereo not given) | inconclusive: -58% |
| COc1ccc(C2NC3=C(CCCC3)C(C#N)(C#N)C2(C#N)C#N)cc1 (stereo not given) | inconclusive: -61% |
| CC(=O)Nc1ccc(NC(=O)c2cc(=O)c3cc(C)cc(C)c3o2)cc1 | inconclusive: -60.7% |
| CC(C)n1c(/C=C/[C@@H](O)C[C@@H](O)CC(=O)O)c(-c2ccc(F)cc2)c2ccccc21 | inactive: 63.9% |
| O=C(O)c1c2c(nc3ccccc13)/C(=C/c1ccc(OC(F)F)cc1)CCC2 | inconclusive: -43.8% |
| Cc1sc(NC(=S)NC(=O)c2ccccc2)c(C#N)c1C | inconclusive: -54.3% |
| COc1cccc(C(=O)NC(=S)Nc2ccc3c4c(cccc24)CC3)c1 | inconclusive: -54.7% |
| CCCNC(=O)c1ccc2c(=O)c(O)c(-c3ccc(F)cc3)[nH]c2c1 | inactive: 80.7% |
